The experiment addresses T1, D2R-EGFP (UniProt P61169 1-444).
T1 construct: dopamine type 2 receptor; also called EGFP fusion (D2R-EGFP); source: PC-12 cells, transiently cotransfected, in living cells
The experiment in a line: FRET or BRET; BRET; PC-12 cells transiently cotransfected with GHS-R1a-Rluc and D2R-EGFP; coelenterazine H 5 uM, 37 °C, D-PBS; negative controls GHS-R1a-Rluc + EGFP and D2R-EGFP + Rluc. To be noted: partners not purified.

Sequence of D2R-EGFP (P61169 whole entry): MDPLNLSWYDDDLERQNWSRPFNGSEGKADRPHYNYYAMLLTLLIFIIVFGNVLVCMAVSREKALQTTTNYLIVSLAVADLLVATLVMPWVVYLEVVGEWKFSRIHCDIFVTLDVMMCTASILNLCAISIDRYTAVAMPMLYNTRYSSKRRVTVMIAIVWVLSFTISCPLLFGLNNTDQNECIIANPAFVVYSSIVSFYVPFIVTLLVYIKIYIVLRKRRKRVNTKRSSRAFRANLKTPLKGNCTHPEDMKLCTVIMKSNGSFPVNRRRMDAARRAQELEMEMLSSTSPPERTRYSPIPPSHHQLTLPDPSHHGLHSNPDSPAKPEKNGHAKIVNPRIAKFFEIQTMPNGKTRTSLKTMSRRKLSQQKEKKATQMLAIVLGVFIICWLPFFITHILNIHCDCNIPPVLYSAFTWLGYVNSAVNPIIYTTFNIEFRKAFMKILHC

B1: GHS-R1a-Rluc (receptor)
chain: not shown
notes: growth hormone secretagogue receptor 1a; also called Rluc fusion (GHS-R1a-Rluc); source: PC-12 cells, transiently cotransfected, in living cells
As to B1, the “increase of the BRET ratio over the negative control D2R-EGFP + Rluc” value stood at 220% and the “increase of the BRET ratio over the negative control GHS-R1a-Rluc + EGFP” value turned out to be 240%.

The values above are taken from paper PMC10374575, “Quinpirole ameliorates nigral dopaminergic neuron damage in Parkinson’s disease mouse model through activating GHS-R1a/D2R heterodimers” (Acta Pharmacologica Sinica, 2023).
